The list shows a part of the results.
Experiments:
HSkMC = human skeletal muscle cells; test: cytotoxicity call (relative viability < 0.9); details: 10 µM
HepG2 = test: cytotoxicity call (relative viability < 0.9); details: 10 µM
S. aureus RN4220 = test: growth inhibition call (relative growth <= 0.2); details: 50 µM

Compound	cytotoxicity call (HSkMC)	cytotoxicity call (HepG2)	growth inhibition call (S. aureus RN4220)
C[C@@H]1CCCCO[C@@H](CN(C)CC2CCCCC2)[C@@H](C)CN([C@@H](C)CO)C(=O)c2cc(NC(=O)Nc3cccc4ccccc34)ccc2O1	active	active	inactive
O=Cc1ccccc1O[C@@H]1O[C@H](CO)[C@H](O)[C@@H](O)[C@H]1O	inactive	inactive	inactive
C[C@@H]1CN([C@@H](C)CO)S(=O)(=O)c2ccc(-c3cncnc3)cc2O[C@H]1CN(C)C(=O)c1ccc2c(c1)OCO2	inactive	inactive	inactive
CC(C)NC(=O)Nc1ccc2c(c1)CC(=O)N([C@@H](C)CO)C[C@H](C)[C@H](CN(C)Cc1ccc3c(c1)OCO3)O2	inactive	inactive	inactive
COc1ccc(S(=O)(=O)N(CC(=O)O)c2ccc(N(CC(=O)O)S(=O)(=O)c3ccc(OC)cc3)c3ccccc23)cc1	inactive	inactive	inactive
C[C@H]1CN([C@@H](C)CO)C(=O)c2cc(C#Cc3ccccc3F)cnc2O[C@H]1CN(C)S(=O)(=O)c1ccccc1F	inactive	inactive	inactive
COc1ccc(S(=O)(=O)Nc2ccc3c(c2)CC(=O)N([C@H](C)CO)C[C@@H](C)[C@H](CN(C)Cc2ccc(Cl)c(Cl)c2)O3)cc1	inactive	active	inactive
CCS(=O)(=O)N1C[C@]2(C1)CN([C@H](CO)c1c2c2ccc(cc2n1C)OC)C(=O)c1ccc(cc1)F	inactive	inactive	inactive
COc1ccc(cc1)CN1CC[C@]2(CC1)CN([C@H](CO)c1[nH]c3cc(ccc3c12)OC)C(=O)Nc1ccc(cc1)F	inactive	active	inactive
Cc1noc(C)c1S(=O)(=O)N(C)C[C@H]1Oc2ccc(NC(=O)Cn3cnnn3)cc2C(=O)N([C@@H](C)CO)C[C@H]1C	inactive	inactive	inactive
NCCc1[nH]cnc1-c1cccs1	inactive	inactive	inactive
C[C@H](CO)N1C[C@H](C)[C@@H](CN(C)C(=O)Nc2cccc3ccccc23)Oc2ccc(NC(=O)Cc3cn(C)c4ccccc34)cc2CC1=O	inactive	inactive	inactive

— the antibiotic and cytotoxicity screens of Wong et al. (2023)
